Results taken from patent US8492103B2 (priority 2011, dated 2013).
Like-named read-outs stand apart in the source and are kept apart here.

Test system: E. muris antibody
Details: for sensitivity in detecting Ehrlichia antibody compared to recombinant P28-19 protein: E. muris antibody
Method: To detect sensitivity of the P28 peptides (P28-1, P28-2, P28-3) or recombinant P28, peptides were coated on a NUNC Maxisorp plate (1:250), followed by incubation with E. muris serum. Finally, they were probed with goat anti-mouse AP (1:500) and results read on an ELISA reader after the addition of substrate.
Detection of anti-Ehrlichia antibodies using the Ehrlichia Hsp6043-63 and P28-1955-75 peptides. The inventors used ELISA to detect Ehrlichia antibodies in the sera of infected mice and dogs. Two hundred fifty nanograms of the peptides were coated on an ELISA plate (MaxiSorp, Nunc, Denmark) for 1 hour at room temperature. After washing, the plates were blocked with 5% FCS (in PBS-Tween) for 1 hour. The plates were further incubated with sera of infected mice or dogs for 1 hour at room temperature. Washing was followed by incubation with secondary antibody conjugated to alkaline phosphatase (AP) (Kirkegaard and Perry Laboratories, Gaithersburg, Md.) for 1 hour. After the addition of substrates (Blue Phos™ phosphatase substrate, Kirkegaard and Perry Laboratories, Gaithersburg, Md.), optical densities were measured using an ELISA plate reader (Molecular Devices, Sunnyvale, Calif.) at 650 nm after 30 min. incubation at room temperature. All assays were performed in triplicate wells, and the average values were calculated.

akeeknataktfglkq (AKEEKNATAKTFGLKQ; listed as Ehrlichia muris) [P28-1955-75 peptide]
sensitivity in detecting Ehrlichia antibody compared to recombinant P28-19 protein (ELISA): more sensitive
sensitivity in detecting Ehrlichia antibody compared to recombinant P28-19 protein (ELISA, listed as P28-19-1): very sensitive
sensitivity in detecting Ehrlichia antibody compared to recombinant P28-19 protein (ELISA, listed as P28 peptide): more sensitive
early detection of Ehrlichia antibody (ELISA, sera of E. muris infected mice, day of infection): could detect Ehrlichia antibody even on day 7
sensitivity in detecting Ehrlichia-specific antibody compared to the other P28-19 peptides (listed as peptide 1): more sensitive
reaction with E. muris antibody (ELISA) (peptide coated on plate, sera of mice infected with E. muris): reacted
